{
  "source": "PubChem BioAssay AID540317",
  "about": "(National Center for Advancing Translational Sciences (NCATS), 2011)",
  "note": "Hit rate of the full screen: of about 390,000 compounds, about 2,200 (0.56%) were called active. Inconclusive means that the source gave no clear call. Such entries were picked first, then a sample of the others. The call rests on the fitted dose curve; in most records, active means well fitted inhibition curve with a large enough effect; inconclusive means small, poorly fitted or top-dose-only effect; inactive means no such curve, though single readings can be large or run the other way. A potency beside an inconclusive call is a rough fit, not a confirmed value. Potency means the concentration at half of the fitted maximal effect; tags describe the fitted curve by direction and shape.",
  "data": [
    {"biological_target": "Chromobox protein homolog 1 (Homo sapiens) (UniProt P83916)", "sequence (P83916 whole entry, looked up)": "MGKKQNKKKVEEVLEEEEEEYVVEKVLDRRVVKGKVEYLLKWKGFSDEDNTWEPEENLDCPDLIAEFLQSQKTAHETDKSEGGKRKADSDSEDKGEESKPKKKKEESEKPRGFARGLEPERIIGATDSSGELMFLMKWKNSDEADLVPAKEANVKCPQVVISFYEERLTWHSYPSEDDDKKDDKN", "test": "HTS for Inhibitors of HP1-beta Chromodomain Interactions with Methylated Histone Tails; further: nearly all actives have a fitted effect of over 70% in size", "conditions": "AlphaScreen HP1-beta / biotin-H3K9me3 peptide binding; series mostly up to 114 µM", "in_short": "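HP1-beta protein (50 nM final) preincubated 30 min at room temperature with biotinylated H3(1-18)K9me3 peptide (50 nM) in PBS pH 7.4, 0.01% Tween-20, then compound added for 30 min. AlphaScreen streptavidin donor/nickel chelate acceptor beads (10 ug/mL final), 30 min dark, luminescence read.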", "values": [
      {"smiles": "Cc1ccc(N/N=C/c2ccc3c(c2)OCCO3)cc1Cl", "Potency": "inconclusive: 100 µM [inhibitor, single point]"},
      {"smiles": "CC(C(=O)O)N1C(=O)/C(=C/c2cccn2C)SC1=S", "note": "(stereo unspecified)", "Potency": "inconclusive: 28.2 µM [inhibitor, partial curve]"},
      {"smiles": "COc1ccc(/C=C2\\CN(Cc3ccccc3)C/C(=C\\c3ccc(OC)cc3OC)C2=O)c(OC)c1", "Potency": "inconclusive: 12.6 µM [inhibitor, full curve]"},
      {"smiles": "Cc1[nH]c2ccccc2c1/C=N/Nc1ccc([N+](=O)[O-])cc1", "Potency": "inconclusive: 44.7 µM [inhibitor, partial curve]"},
      {"smiles": "O=C(COC(=O)Cc1ccc(Cl)cc1)NCc1ccco1", "Potency": "inconclusive: 56.2 µM [inhibitor, single point]"},
      {"smiles": "O=C(CCC(=O)OCC(F)(F)C(F)F)Nc1ccc(F)cc1F", "Potency": "inconclusive: 39.8 µM [inhibitor, single point]"},
      {"smiles": "COc1ccc(S(=O)(=O)NCC(c2ccc(N(C)C)cc2)N2CCc3ccccc32)cc1", "note": "(stereo unspecified)", "Potency": "inconclusive: 20 µM [inhibitor, full curve]"},
      {"smiles": "COc1ccccc1NC(=O)COC(=O)c1ccc(S(=O)(=O)N2CCCCCC2)cc1", "Potency": "inactive"},
      {"smiles": "O=C(OC(c1ccccc1)c1nccc2ccccc12)c1cccc([N+](=O)[O-])c1", "note": "(stereo unspecified)", "Potency": "inconclusive: 28.2 µM [inhibitor, full curve]"},
      {"smiles": "O=C(COC(=O)C1CCCCC1)Nc1ccc(N2CCCCC2)cc1", "Potency": "inconclusive: 15.8 µM [inhibitor, full curve, poor fit]"},
      {"smiles": "COc1ccc(/C=N\\NC(=O)c2ccc([N+](=O)[O-])cc2)cc1COc1c(F)c(F)cc(F)c1F", "Potency": "inactive"},
      {"smiles": "COc1ccc(OC)c(Nc2nc(-c3ccc(O)c(O)c3)cs2)c1", "Potency": "inconclusive: 50.1 µM [inhibitor, partial curve, poor fit]"},
      {"smiles": "O=C(O)c1ccc(COc2ccc3ccccc3c2/C=C2/NC(=O)N(Cc3ccc(F)cc3)C2=O)cc1", "Potency": "inconclusive: 89.1 µM [inhibitor, single point]"},
      {"smiles": "COc1ccc(CN2CCc3c([nH]c4ccccc34)C2)c(OC)c1C", "Potency": "inconclusive: 56.2 µM [inhibitor, partial curve, poor fit]"},
      {"smiles": "COC(=O)c1ccc(/C=N/N2CCN(Cc3ccc(C)cc3C)CC2)cc1", "Potency": "inactive"},
      {"smiles": "Cc1ccc(NS(=O)(=O)c2ccc3c(c2)C(=O)c2ccccc2C3=O)c(C)c1", "Potency": "inconclusive: 17.8 µM [inhibitor, full curve]"},
      {"smiles": "COc1ccc(CCNC(=O)c2ccc3nc(-c4ccco4)c(-c4ccco4)nc3c2)cc1OC", "Potency": "inconclusive: 14.1 µM [inhibitor, partial curve, poor fit]"},
      {"smiles": "O=C(CCCCCNC(=S)Nc1ccc(Cl)cc1)C[N+](=O)[O-]", "Potency": "inconclusive: 20 µM [inhibitor, single point]"},
      {"smiles": "Cc1ccccc1CN1CCCC(C(=O)N2CCCCC2)C1", "note": "(stereo unspecified)", "Potency": "inconclusive: 44.7 µM [inhibitor, partial curve]"},
      {"smiles": "CC(CCN1CCOCC1)c1ccccc1", "note": "(stereo unspecified)", "Potency": "inconclusive: 25.1 µM [inhibitor, partial curve]"},
      {"smiles": "CC1CCCCC1NC(=O)CSc1nncn1N", "note": "(stereo unspecified)", "Potency": "inconclusive: 39.8 µM [inhibitor, single point]"},
      {"smiles": "Cc1ccc(S(=O)(=O)N2CCC(C(=O)NNC(=O)C3CC3)CC2)cc1Cl", "Potency": "inactive"},
      {"smiles": "CCN(CCCNC(=O)CN1N=C(c2ccccc2)CCC1=O)c1cccc(C)c1", "Potency": "inconclusive: 50.1 µM [inhibitor, partial curve]"},
      {"smiles": "COc1ccc(-c2nn(-c3ccccc3)cc2C(=O)Nc2ccc(C(=O)O)cc2)cc1", "Potency": "inconclusive: 89.1 µM [inhibitor, single point]"},
      {"smiles": "CC(C)OC(=O)c1c2c(n3ccccc13)C(=O)c1ccccc1C2=O", "Potency": "inconclusive: 17.8 µM [inhibitor, partial curve, poor fit]"},
      {"smiles": "CCCCn1c(-c2csc(C(C)C)c2)n[nH]c1=S", "Potency": "inconclusive: 39.8 µM [inhibitor, single point]"},
      {"smiles": "CCOc1ccc2nc(N3C(=O)/C(=C/c4ccc(Cl)cc4)NC3=S)sc2c1", "Potency": "inconclusive: 35.5 µM [inhibitor, partial curve, poor fit]"},
      {"smiles": "CCOC(=O)c1[nH]c(C)c(C(=O)NC2CCCCC2)c1C", "Potency": "inactive"},
      {"smiles": "Cc1ccc(CNC(=O)CCCCCn2c(=O)c3sccc3n(CC(=O)C(C)(C)C)c2=O)cc1", "Potency": "inactive"},
      {"smiles": "c1cncc(-c2nn3c(Cn4cnc5ccccc54)nnc3s2)c1", "Potency": "inconclusive: 12.6 µM [inhibitor, single point]"},
      {"smiles": "O=C(CN1CCN(C2CCCCC2)CC1)Nc1ccccc1-c1ccccc1", "Potency": "inconclusive: 39.8 µM [inhibitor, partial curve]"},
      {"smiles": "O=C(COc1cccnc1[N+](=O)[O-])c1ccc(Cl)s1", "Potency": "inconclusive: 50.1 µM [inhibitor, partial curve]"},
      {"smiles": "COC(=O)C(NNc1ccccc1C)(NC(=O)c1ccc(F)cc1)C(F)(F)F", "note": "(stereo unspecified)", "Potency": "inconclusive: 35.5 µM [inhibitor, partial curve, poor fit]"},
      {"smiles": "CCC(C)NCCOCCOc1ccc(F)cc1", "note": "(stereo unspecified)", "Potency": "inconclusive: 50.1 µM [inhibitor, partial curve, poor fit]"},
      {"smiles": "CCOc1cc2c3c(c1)C(C)CC(C)(C)N3C(=O)C2=O", "note": "(stereo unspecified)", "Potency": "inconclusive: 44.7 µM [inhibitor, partial curve]"},
      {"smiles": "Cc1ccc(Cl)cc1N1CCN(S(C)(=O)=O)CC1", "Potency": "inactive"},
      {"smiles": "CCOc1ccc(NCCC(O)c2ccc(F)cc2)cc1", "note": "(stereo unspecified)", "Potency": "inconclusive: 70.8 µM [inhibitor, partial curve]"},
      {"smiles": "C=CCc1cc(Cl)ccc1OCCN1CC(C)OC(C)C1", "note": "(stereo unspecified)", "Potency": "inconclusive: 31.6 µM [inhibitor, partial curve]"},
      {"smiles": "O=C1CC(c2ccco2)CC2=C1C(c1ccc(O)cc1)n1nc(C(F)(F)F)nc1N2", "note": "(stereo unspecified)", "Potency": "inconclusive: 35.5 µM [inhibitor, partial curve]"},
      {"smiles": "O=C(Nc1nnc(S(=O)(=O)N2CCCc3ccccc32)s1)c1ccc(Cl)cc1", "Potency": "inactive"},
      {"smiles": "COc1cc(N=c2ssnc2Cl)c(OC)cc1Cl", "Potency": "active: 11.2 µM"},
      {"smiles": "CN(C)CCn1c(=S)[nH]c2ccccc2c1=O", "Potency": "inconclusive: 89.1 µM [inhibitor, single point]"},
      {"smiles": "CCOC(=O)c1[nH]c(=S)n(Cc2ccccc2)c1C(=O)OCC", "Potency": "inconclusive: 50.1 µM [inhibitor, partial curve, poor fit]"},
      {"smiles": "O=C(Cc1cccs1)N(Cc1cccs1)C1(C(=O)NC2CCCCC2)CCCCC1", "Potency": "inactive"},
      {"smiles": "CC(C)(C)c1cc(C(c2cccnc2)N2CCN(CCO)CC2)cc(C(C)(C)C)c1O", "note": "(stereo unspecified)", "Potency": "inconclusive: 50.1 µM [inhibitor, partial curve]"},
      {"smiles": "O=c1c2ccccc2sn1-c1ccc(S(=O)(=O)N2CCCC2)cc1", "Potency": "active: 1.41 µM"},
      {"smiles": "Cc1ccc(/C=N/NC(=O)C(C)Oc2cccc3ccccc23)o1", "note": "(stereo unspecified)", "Potency": "inconclusive: 39.8 µM [inhibitor, partial curve, poor fit]"},
      {"smiles": "O=C(Nc1ccc(-n2nncc2-c2ccco2)cc1)c1ccc(F)cc1", "Potency": "inconclusive: 50.1 µM [inhibitor, partial curve]"},
      {"smiles": "O=C(c1ccco1)N1CCN(Cc2cccc([N+](=O)[O-])c2)CC1", "Potency": "inconclusive: 22.4 µM [inhibitor, full curve]"},
      {"smiles": "CCOc1ccc(CN(CCc2ccc3c(c2)OCO3)Cc2cc(OC)cc(OC)c2)cc1", "Potency": "inconclusive: 25.1 µM [inhibitor, single point]"},
      {"smiles": "Cc1cccc2nc(-c3ccc(Cl)s3)c(Nc3ccc4c(c3)OCCO4)n12", "Potency": "inconclusive: 35.5 µM [inhibitor, partial curve]"},
      {"smiles": "COc1ccccc1/C=C/C=N/N1CCN(Cc2cccc3ccccc23)CC1", "Potency": "inconclusive: 25.1 µM [inhibitor, partial curve]"},
      {"smiles": "Cn1nnc2c[n+](CC(=O)c3ccc(Cl)cc3)cc(Br)c21", "Potency": "inactive"},
      {"smiles": "CCN(CC)CCSc1nc2ccccc2c(=S)n1-c1ccccc1", "Potency": "inconclusive: 20 µM [inhibitor, full curve]"},
      {"smiles": "Cc1nn(-c2nnc(NCc3ccccc3)nn2)c(C)c1Br", "Potency": "inconclusive: 39.8 µM [inhibitor, single point]"},
      {"smiles": "CCN(CC)CCC=C(c1cccs1)c1cccs1", "Potency": "inconclusive: 56.2 µM [inhibitor, single point]"},
      {"smiles": "CCN(C(=O)c1cn(C)c(=O)c2cc(OC)c(OC)cc12)c1cc(OC)ccc1OC", "Potency": "inconclusive: 89.1 µM [inhibitor, single point]"},
      {"smiles": "Cc1ccc(NC2CCCCC2NS(=O)(=O)c2ccccc2)c(C)c1", "note": "(stereo unspecified)", "Potency": "inconclusive: 50.1 µM [inhibitor, partial curve]"},
      {"smiles": "C[C@H](NC(N)=O)C(=O)Nc1ccc(N2CCOCC2)c(S(=O)(=O)Nc2ccc(Cl)cc2)c1", "Potency": "inconclusive: 12.6 µM [inhibitor, partial curve]"},
      {"smiles": "C=CCn1c(Sc2ncc([N+](=O)[O-])s2)n[nH]c1=O", "Potency": "inactive"},
      {"smiles": "COc1ccc([N+](=O)[O-])c(S(=O)(=O)c2ccccc2)n1", "Potency": "inactive"},
      {"smiles": "COc1ccc(C(C(=O)NC(C)C)N(C(=O)CCC(=O)Nc2nccs2)c2ccccc2F)cc1", "note": "(stereo unspecified)", "Potency": "inconclusive: 14.1 µM [inhibitor, partial curve, poor fit]"},
      {"smiles": "Cc1ccc2c(c1)-c1ncc(C(=O)c3cc(Br)ccc3O)cc1CO2", "Potency": "inconclusive: 22.4 µM [inhibitor, partial curve, poor fit]"},
      {"smiles": "COc1cc(/C=N/NC(=O)NC2CCCCC2)ccc1O", "Potency": "inactive"},
      {"smiles": "c1ccc(-c2ccccc2OCCOCCN2CCOCC2)cc1", "Potency": "inconclusive: 15.8 µM [inhibitor, partial curve, poor fit]"},
      {"smiles": "O=C1C2CCCN2C(=S)N1c1cc(Cl)ccc1Cl", "note": "(stereo unspecified)", "Potency": "inconclusive: 70.8 µM [inhibitor, partial curve]"}
    ]}
  ]
}
